Reference: paper PMC4336329 (PLoS ONE, 2015)
About 14,000 (4.5%) of roughly 310,000 compounds showed an effect of 50% or more. Effects have a minus sign here. Some of the results follow.

target: human ether-à-go-go-related gene (hERG) potassium channel (human, UniProt Q12809); test: primary screen, population patch clamp on CHO cells stably expressing hERG
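Also: peak tail current of the secondary pulse compared with the same well before compound.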

Chain of human ether-à-go-go-related gene (hERG) potassium channel (Q12809 whole entry, looked up): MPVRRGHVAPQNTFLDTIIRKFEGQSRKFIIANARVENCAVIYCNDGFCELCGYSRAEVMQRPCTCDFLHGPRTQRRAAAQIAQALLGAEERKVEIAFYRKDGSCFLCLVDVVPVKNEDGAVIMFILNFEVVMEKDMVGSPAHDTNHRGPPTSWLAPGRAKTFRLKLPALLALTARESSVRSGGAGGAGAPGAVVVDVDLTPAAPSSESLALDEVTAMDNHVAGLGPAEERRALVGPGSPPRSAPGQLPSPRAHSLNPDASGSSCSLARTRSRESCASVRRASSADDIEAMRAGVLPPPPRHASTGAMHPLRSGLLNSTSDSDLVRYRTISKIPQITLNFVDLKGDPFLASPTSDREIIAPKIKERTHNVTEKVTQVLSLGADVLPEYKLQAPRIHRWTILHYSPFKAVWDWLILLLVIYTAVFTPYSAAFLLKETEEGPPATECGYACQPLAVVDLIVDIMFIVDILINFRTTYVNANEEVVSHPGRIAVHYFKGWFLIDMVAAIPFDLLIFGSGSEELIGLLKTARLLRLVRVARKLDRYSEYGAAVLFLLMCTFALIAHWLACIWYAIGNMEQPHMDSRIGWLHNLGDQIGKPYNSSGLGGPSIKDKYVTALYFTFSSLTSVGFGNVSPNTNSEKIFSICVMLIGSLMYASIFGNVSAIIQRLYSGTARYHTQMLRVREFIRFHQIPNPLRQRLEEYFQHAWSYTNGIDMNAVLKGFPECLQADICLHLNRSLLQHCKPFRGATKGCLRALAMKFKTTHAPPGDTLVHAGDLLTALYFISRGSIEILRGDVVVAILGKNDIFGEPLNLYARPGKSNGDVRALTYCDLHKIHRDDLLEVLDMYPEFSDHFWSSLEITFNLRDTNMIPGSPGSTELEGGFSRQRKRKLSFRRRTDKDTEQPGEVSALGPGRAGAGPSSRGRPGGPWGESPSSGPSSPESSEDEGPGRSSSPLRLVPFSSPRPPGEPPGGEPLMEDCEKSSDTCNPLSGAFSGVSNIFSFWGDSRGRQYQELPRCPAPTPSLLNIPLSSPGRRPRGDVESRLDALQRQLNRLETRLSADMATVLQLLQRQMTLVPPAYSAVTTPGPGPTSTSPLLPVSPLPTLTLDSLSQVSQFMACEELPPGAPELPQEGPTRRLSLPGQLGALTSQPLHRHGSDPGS

SMILES	hERG current change (%, negative = inhibition) at 10uM [%]
N#Cc1cc2c(nc1Cl)CCCC2	4.96
Cc1ccc(C)c(NC(=O)C(NCC(C)(C)N2CCOCC2)c2ccccc2)c1 (stereo not shown)	-62.6
Cc1cc(C(=O)CSc2nc(N)cc(=O)[nH]2)c(C)n1CCc1ccc(F)cc1	1.93
CN(C)CCN(C(=O)c1ccc(C(=O)c2ccccc2)cc1)c1nc2cc3c(cc2s1)OCO3.Cl	3.43
O=C(c1ccco1)N1CCN(c2ncnc3sc4c(c23)CCC4)CC1	-56.6
CC12CC(NC(=O)N1c1ccc(C(=O)N3CCN(c4ccc(F)cc4)CC3)cc1)c1ccccc1O2 (stereo not shown)	-8.38
CCS(=O)(=O)c1nc(S(=O)(=O)c2ccc(C)cc2)c(N2CCOCC2)s1	-11.1
Cc1nn2cc(-c3ccc(Cl)cc3)cnc2c1Br	10.3
COc1cc(CNc2nc3c(C)cc(C)cc3s2)ccc1O.Cl	27.3
CC(C)(C)c1cc(=O)n2[nH]c(N)nc2n1	5.31
O=[N+]([O-])c1ccc(-c2ccccc2)c([As](=O)(O)O)c1	11.9
CCCc1[nH]n(-c2ccc([N+](=O)[O-])cc2)c(=O)c1C=NCCc1c[nH]c2ccccc12	8.42
Cc1sc2nc(CN3CCCCC3)nc(Nc3ccc4c(c3)OCCO4)c2c1C	-85.8
Cc1cc(C)cc(NC(=O)c2ccc(CSc3nnnn3C)cc2)c1	-24
CC(=O)Oc1ccc2c(c1)O/C(=C\c1ccncc1)C2=O	16.2
Cl.O=c1[nH]c2ccccc2n1CCCN1CCCCC1	16.5
CC(C)n1c(N2CCN(C(=O)N3CCCCC3)CC2)nc2ccccc21	-15.8
Clc1ccc(-c2cc(COc3ccccc3)no2)cc1Cl	-0.662
O=C1CCC(C(=O)N2CCCCO2)CN1Cc1cccc(F)c1 (stereo not shown)	8.75
Cc1ccc(-n2nc3c(Cl)nnc(C)c3c2C)cc1	1.43
CCN(CC)CCCNc1nc2cc(OC)c(OC)cc2c2nc(-c3cccnc3)nn12	-2.29
Cc1ccccc1C(=O)Nc1cccc(NC(=O)Cn2cnc3c(=O)n(C)c(=O)n(C)c32)c1	-21.1

SMILES	hERG current change (%, negative = inhibition) at 10uM [%]
CC(=O)Nc1ccc(-c2nnc(SCC(=O)Nc3ccc4c(c3)oc3ccccc34)n2C)cc1	11.3
O=c1c2ccccc2nc(-c2ccccc2)n1-n1cccc1	9.64
Cc1cc(C)cc(NC2=C(N)C(=O)c3ccccc3C2=O)c1	13.7
CC(NS(=O)(=O)CCNC(=O)c1ccccc1)c1ccccc1 (stereo not shown)	9.29
COc1nc(N)c(C#N)c(-c2ccc(N(C)CCC#N)cc2)c1C#N	-14.1
COC(=O)c1ccccc1NC(=O)COC(=O)/C=C/c1ccco1	-0.27
COc1ccc(Nc2nc(N)c([N+](=O)[O-])c(N3CCN(C)CC3)n2)cc1	-26.6
Cc1ccc(NC(=O)C2CCCN(C(=O)NCc3ccccc3)C2)c(C)c1 (stereo not shown)	12.2
COc1cc(C(=O)NC(=S)Nc2ccc(N3CCCC3)cc2)cc(OC)c1OC	-2.18
O=C(Cn1cc2c(n1)CCCC2)N1CCCc2ccccc21	-18.5
O=C(O)C1CCCN1S(=O)(=O)c1ccc(F)cc1 (stereo not shown)	26.9
COc1c(Cl)cc(Cl)cc1C(=O)Nc1ccc(C(=O)O)cc1	26.9
Cc1cccc(NC(=O)Cn2cc(C(=O)C3CC3)c3ccccc32)c1C	10.7
Oc1ccc(N=Nc2nc(-c3ccccc3)c(-c3ccccc3)[nH]2)cc1	19.8
CCOC(=O)NC(=O)CSc1nc2ccccc2[nH]1	28.9
Cc1cc2ccccc2nc1SCC(=O)N1c2ccccc2CC1C (stereo not shown)	8.01
CCN(CC)S(=O)(=O)c1cccc(-c2nnc(-c3ccc(C)cc3)o2)c1	18.4
CCOC(=O)c1cc(C(=O)NCc2ccc(Cl)cc2Cl)nn1C	-17
NC(=O)CSc1nc(N)c2c3c(sc2n1)CCCCC3	-30.5
CCN(CC(=O)Nc1ccc(OC)cc1)C(=O)c1cc(S(=O)(=O)N(C)C)ccc1N1CCCC1	-8.62
CC(=O)Nc1ccc(/C(C)=N/NC(=O)c2ccc(F)cc2)cc1	4.2
CC(OC(=O)CCCCCN=C1NS(=O)(=O)c2ccccc21)C(=O)Nc1cc(Cl)cc(Cl)c1 (stereo not shown)	-34.2

SMILES	hERG current change (%, negative = inhibition) at 10uM [%]
N#Cc1ccccc1NC(=O)CNc1ccccc1N1CCCCC1	-14.7
N=C1C(c2ccccc2)=C(O)CN1c1cccc(S(=O)(=O)Nc2cccc(C(F)(F)F)c2)c1	32.3
CSc1ccc(CNCC(O)c2ccccc2)cc1.Cl (stereo not shown)	-55
CCOc1ccc(-c2cn(-c3ccc(OC)cc3)c(SC)n2)cc1	-0.431
CN(C)S(=O)(=O)c1ccc(N2CCCC2)c(C(=O)NCc2ccc(Cl)cc2)c1	-68.5
Cc1ccccc1-c1nc2cc(Cl)ccc2o1	8.3
Cc1ccc2c(c1)N(C(=O)CSc1nncn1C)C(C)(C)c1ssc(=S)c1-2	-21.7
CC1=C(C)CC(C(=O)NCc2cccc(Cl)c2)C(C(=O)O)C1 (stereo not shown)	2.2
O=C(Cn1cnc2scc(-c3ccccc3)c2c1=O)N1CCOCC1	-11.9
COCCNC(=O)c1nc2ccccc2s1	-8.79
CCCCS(=O)CC(COCc1ccccc1)OC(=O)CSc1nc(C)cc(C)n1 (stereo not shown)	-40.5
CCOC(=O)CCCNC(=O)CN1CCC(c2nc3ccccc3s2)CC1	-46.8
CCC(=O)Nc1ccccc1C(=O)N1CCCC1	7.25
COc1ccc2c(c1)C(C)CC(C)(C)N2C(=O)NC1CCCCC1 (stereo not shown)	1.9
COc1cc(/C=C(\C#N)C(=O)c2c(C)[nH]c3ccccc23)cc(OC)c1OC	13.2
Cc1ccc(S(=O)(=O)N2CCCCC2)cc1NC(=O)CSc1nnnn1C	-9.78
Cc1ccc2[nH]c(=O)c(CNC(C)C)cc2c1	-3.2
CCOC(=O)C1CCN(C(=O)c2cn(C)c(=O)c3cc(OC)c(OC)cc23)CC1	-11.3
COc1ccc(OC)c2sc(NC(=O)CCS(=O)(=O)c3ccccc3)nc12	18.1
CCOC(=O)COc1ccc(S(=O)(=O)NCc2cccnc2)cc1	5.13
CC1(c2ccccc2)CC(C)(C)N(C(=O)c2cc([N+](=O)[O-])cc([N+](=O)[O-])c2)c2ccccc21 (stereo not shown)	26.9
CC(C)(C)NC(=O)CN(Cc1cccnc1)C(=O)c1csnn1	-4.81

SMILES	hERG current change (%, negative = inhibition) at 10uM [%]
CCCCNC(=O)[C@H](Cc1c[nH]c2ccccc12)NC(=O)c1ccccc1Cl	-8.26
COC(=O)C1SCCN1S(=O)(=O)c1ccc(Cl)cc1 (stereo not shown)	-6.37
CCCc1nc(SCC(=O)NCC2CCCO2)c2c(=O)n(C)c(=O)n(C)c2n1 (stereo not shown)	6.13
O=C(Nc1ccc2nc3n(c(=O)c2c1)CCCC3)c1ccccc1[N+](=O)[O-]	13.9
N=c1ccccn1CC(O)COc1ccccc1 (stereo not shown)	-3.09
COc1ccc(C2CC(c3ccccc3)=NN2C(=O)COC(=O)C2(C)CC2(Cl)Cl)cc1 (stereo not shown)	17
CCOc1ccc(CNc2ccc(S(N)(=O)=O)cc2)cc1	-6.78
COc1ccc(-c2cn(-c3ccc(Br)cc3)c3[n+]2CCS3)cc1.[Br-]	-66.7
Cc1cc(O)ccc1NC(=O)CCN1C(=O)c2ccc([N+](=O)[O-])cc2C1=O	-24.1
Cc1ccc(NS(=O)(=O)c2ccc(C(=O)NCCCN3CCCC3=O)cc2)cc1C	0.842
Cc1ccccc1N1C(=O)Cc2ccccc2C1=O	15.1
O=c1c2ccccc2[nH]c(=S)n1CCN1CCCC1	-19.1
COc1ccccc1NC(=O)Cn1ccn(-c2cccc3ccccc23)c(=O)c1=O	-14.6
CCn1cc(C(=O)N2CCOCC2)c(=O)c2cc(S(=O)(=O)N(C)C)ccc21	1.21
CCOC(=O)CSc1nc2c(sc(=S)n2-c2ccccc2)c(=O)[nH]1	-8.56
O=C(c1ccccc1)N1CCC(c2nc(-c3ccc(S(=O)(=O)N4CCOCC4)cc3)no2)CC1	-60.8
O=C(NN1C(=O)C2C3C=CC([C@H]4CC34)[C@@H]2C1=O)c1ccc(Br)cc1 (stereo partly shown)	8.18
Cc1nc2ccc(NS(=O)(=O)c3ccc(F)cc3F)cc2s1	-28.3
O=C(Nc1c(C(=O)Nc2ccccc2)cnn1-c1ccccc1)c1ccco1	-10.2
CCOCCCNC(=O)c1ccc2c(c1)N(CC)C(=O)c1ccccc1S2=O (stereo not shown)	16.2
COCc1cc(C)nc(SCC(=O)Oc2ccccc2)c1C#N	9.45
CC(C)(C)C(=O)Nc1nc(C2CCCN2S(=O)(=O)c2ccc(Cl)cc2)cs1 (stereo not shown)	-30.5
